In assay [1] the target is VISA (endogenous) (human (endogenous in HEK293 and HEK293T)) (UniProt Q7Z434). Kind of assay: co-IP; called endogenous co-IP in the text; HEK293 cells transfected with iRhom2 plasmids, un-infected or infected with SeV for the indicated times; NP-40 lysis buffer (Fig 4B).
The target of another assay is T1, MDA5 (UniProt Q9BYX4).
T1 sequence: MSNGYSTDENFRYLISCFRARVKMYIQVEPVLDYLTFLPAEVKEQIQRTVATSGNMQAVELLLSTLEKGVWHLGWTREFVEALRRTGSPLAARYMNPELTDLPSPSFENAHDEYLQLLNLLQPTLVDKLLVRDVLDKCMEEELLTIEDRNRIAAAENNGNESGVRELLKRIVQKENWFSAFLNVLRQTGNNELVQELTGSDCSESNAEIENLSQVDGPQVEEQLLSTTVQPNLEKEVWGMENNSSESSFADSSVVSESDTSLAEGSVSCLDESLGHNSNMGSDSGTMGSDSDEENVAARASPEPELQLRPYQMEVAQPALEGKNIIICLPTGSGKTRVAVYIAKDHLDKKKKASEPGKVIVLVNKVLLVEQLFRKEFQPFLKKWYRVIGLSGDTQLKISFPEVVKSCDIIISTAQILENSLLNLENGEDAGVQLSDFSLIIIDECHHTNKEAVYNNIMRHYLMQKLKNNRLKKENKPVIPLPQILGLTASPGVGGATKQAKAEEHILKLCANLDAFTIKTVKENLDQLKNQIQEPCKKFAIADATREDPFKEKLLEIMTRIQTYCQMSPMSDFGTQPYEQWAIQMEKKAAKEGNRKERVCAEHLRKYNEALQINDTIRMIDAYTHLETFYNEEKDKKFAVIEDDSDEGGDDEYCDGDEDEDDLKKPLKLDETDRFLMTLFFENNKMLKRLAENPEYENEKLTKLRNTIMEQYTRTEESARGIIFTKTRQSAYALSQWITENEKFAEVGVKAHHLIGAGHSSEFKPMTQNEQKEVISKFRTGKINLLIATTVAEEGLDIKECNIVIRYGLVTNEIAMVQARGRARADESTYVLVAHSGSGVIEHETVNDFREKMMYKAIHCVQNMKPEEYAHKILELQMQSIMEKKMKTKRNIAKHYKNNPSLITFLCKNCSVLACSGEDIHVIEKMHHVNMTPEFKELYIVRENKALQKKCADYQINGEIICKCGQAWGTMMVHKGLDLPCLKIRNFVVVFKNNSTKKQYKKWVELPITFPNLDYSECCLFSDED
Description: co-IP; HEK293 cells transfected with the indicated plasmids; NP-40 lysis buffer (20 mM Tris-HCl pH 7.4, 150 mM NaCl, 1 mM EDTA, 1% Nonidet P-40); immunoprecipitation and immunoblot with the indicated antibodies (Fig 4A, 4C). A general note: In western blotting, separated proteins are transferred to a membrane and probed.

Protein sequences, listed by entry. Tags and fused reporters are not part of them.
UniProt Q7Z434: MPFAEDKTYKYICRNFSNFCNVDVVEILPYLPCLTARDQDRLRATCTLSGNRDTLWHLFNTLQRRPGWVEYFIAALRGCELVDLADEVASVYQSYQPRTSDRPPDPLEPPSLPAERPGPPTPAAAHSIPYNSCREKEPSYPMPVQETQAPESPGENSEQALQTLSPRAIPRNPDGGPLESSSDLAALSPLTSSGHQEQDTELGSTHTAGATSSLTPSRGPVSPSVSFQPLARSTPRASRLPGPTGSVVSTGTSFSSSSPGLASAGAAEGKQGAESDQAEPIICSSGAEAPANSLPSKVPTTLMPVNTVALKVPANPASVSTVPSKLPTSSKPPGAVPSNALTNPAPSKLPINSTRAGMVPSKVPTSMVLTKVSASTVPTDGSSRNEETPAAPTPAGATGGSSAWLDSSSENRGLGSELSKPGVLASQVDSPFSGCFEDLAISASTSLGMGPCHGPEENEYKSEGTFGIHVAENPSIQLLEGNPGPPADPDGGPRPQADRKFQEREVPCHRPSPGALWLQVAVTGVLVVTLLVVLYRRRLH

The target of another assay is VISA (UniProt Q7Z434). The assay is described as above.
The next assay has as its target T2, TBK1 (UniProt Q9UHD2).
T2 sequence: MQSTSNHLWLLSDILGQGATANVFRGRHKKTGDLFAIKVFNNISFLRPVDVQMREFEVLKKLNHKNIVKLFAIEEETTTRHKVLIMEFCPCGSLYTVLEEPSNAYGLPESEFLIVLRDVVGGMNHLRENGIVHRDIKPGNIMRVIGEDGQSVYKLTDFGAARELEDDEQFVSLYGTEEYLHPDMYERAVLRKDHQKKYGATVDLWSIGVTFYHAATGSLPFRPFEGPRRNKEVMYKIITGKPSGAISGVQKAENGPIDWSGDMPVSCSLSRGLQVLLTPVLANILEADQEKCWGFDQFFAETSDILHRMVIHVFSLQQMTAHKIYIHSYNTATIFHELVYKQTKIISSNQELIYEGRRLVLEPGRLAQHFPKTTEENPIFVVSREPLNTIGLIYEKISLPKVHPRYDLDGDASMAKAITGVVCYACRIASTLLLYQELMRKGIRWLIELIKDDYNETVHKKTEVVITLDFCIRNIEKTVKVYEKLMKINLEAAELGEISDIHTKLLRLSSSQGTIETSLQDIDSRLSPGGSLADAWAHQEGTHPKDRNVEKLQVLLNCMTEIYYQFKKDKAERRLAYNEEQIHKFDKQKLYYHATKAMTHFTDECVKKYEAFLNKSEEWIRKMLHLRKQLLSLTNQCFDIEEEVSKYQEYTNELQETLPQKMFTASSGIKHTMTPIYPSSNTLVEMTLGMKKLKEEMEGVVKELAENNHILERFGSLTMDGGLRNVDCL
The description is as above.

For a further assay, the target named is T3, IRF3 (UniProt Q14653).
T3 sequence: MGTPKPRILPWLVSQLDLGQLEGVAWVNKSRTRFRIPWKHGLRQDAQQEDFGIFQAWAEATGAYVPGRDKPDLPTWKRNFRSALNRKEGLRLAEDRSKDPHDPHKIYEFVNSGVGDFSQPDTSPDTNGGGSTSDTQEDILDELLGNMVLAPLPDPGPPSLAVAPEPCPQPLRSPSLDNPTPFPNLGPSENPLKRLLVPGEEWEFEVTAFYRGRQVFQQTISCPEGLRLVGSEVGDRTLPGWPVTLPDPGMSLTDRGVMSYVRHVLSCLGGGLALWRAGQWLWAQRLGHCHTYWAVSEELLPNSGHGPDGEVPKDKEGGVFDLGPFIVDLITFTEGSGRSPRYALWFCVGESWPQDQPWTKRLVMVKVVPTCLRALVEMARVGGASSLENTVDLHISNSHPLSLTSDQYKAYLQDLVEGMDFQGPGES
Described as above.

No constants are given. Whether binding was seen depends on the method and setting. Binding seen in cells or lysates may run through a third protein. Some results given as binding are weak or reduced against the parent protein; the word gives no strength.

B1: inactive rhomboid protein 2 (iRhom2) (protein, UniProt Q6PJF5 1-856)
chain: MASADKNGGSVSSVSSSRLQSRKPPNLSITIPPPEKETQAPGEQDSMLPEGFQNRRLKKSQPRTWAAHTTACPPSFLPKRKNPAYLKSVSLQEPRSRWQESSEKRPGFRRQASLSQSIRKGAAQWFGVSGDWEGQRQQWQRRSLHHCSMRYGRLKASCQRDLELPSQEAPSFQGTESPKPCKMPKIVDPLARGRAFRHPEEMDRPHAPHPPLTPGVLSLTSFTSVRSGYSHLPRRKRMSVAHMSLQAAAALLKGRSVLDATGQRCRVVKRSFAFPSFLEEDVVDGADTFDSSFFSKEEMSSMPDDVFESPPLSASYFRGIPHSASPVSPDGVQIPLKEYGRAPVPGPRRGKRIASKVKHFAFDRKKRHYGLGVVGNWLNRSYRRSISSTVQRQLESFDSHRPYFTYWLTFVHVIITLLVICTYGIAPVGFAQHVTTQLVLRNKGVYESVKYIQQENFWVGPSSIDLIHLGAKFSPCIRKDGQIEQLVLRERDLERDSGCCVQNDHSGCIQTQRKDCSETLATFVKWQDDTGPPMDKSDLGQKRTSGAVCHQDPRTCEEPASSGAHIWPDDITKWPICTEQARSNHTGFLHMDCEIKGRPCCIGTKGSCEITTREYCEFMHGYFHEEATLCSQVHCLDKVCGLLPFLNPEVPDQFYRLWLSLFLHAGVVHCLVSVVFQMTILRDLEKLAGWHRIAIIFILSGITGNLASAIFLPYRAEVGPAGSQFGLLACLFVELFQSWPLLERPWKAFLNLSAIVLFLFICGLLPWIDNIAHIFGFLSGLLLAFAFLPYITFGTSDKYRKRALILVSLLAFAGLFAALVLWLYIYPINWPWIEHLTCFPFTSRFCEKYELDQVLH
B1: the binding result in assay [1] was “binds”; in the assay with MDA5, “no binding”; in the assay with VISA, “binds”; with TBK1, “no binding”; with IRF3, “no binding”.

(Values after paper PMC5722342.)
